The GPR68 mutational scans of Howard et al. (2025)

B1: GPR68, Q15743 (parent)
chain: MGNITADNSSMSCTIDHTIHQTLAPVVYVTVLVVGFPANCLSLYFGYLQIKARNELGVYLCNLTVADLFYICSLPFWLQYVLQHDNWSHGDLSCQVCGILLYENIYISVGFLCCISVDRYLAVAHPFRFHQFRTLKAAVGVSVVIWAKELLTSIYFLMHEEVIEDENQHRVCFEHYPIQAWQRAINYYRFLVGFLFPICLLLASYQGILRAVRRSHGTQKSRKDQIQRLVLSTVVIFLACFLPYHVLLLVRSVWEASCDFAKGVFNAYHFSLLLTSFNCVADPVLYCFVSETTHRDLARLRGACLAFLTCSRTGRAREAYPLGAPEASGKSGAQGEEPELLTKLHPAFQTPNSPGSGGFPTGRLA

Key:
[1] = variants of: B1; assay: cAMP reporter score (Enrich2 score, wild type = 0); higher = more signal; HEK293T, FACS bins
[2] = variants of: B1; assay: surface expression score (Enrich2 score, wild type = 0); higher = more signal; HEK293T, FACS bins

Variant	cAMP reporter score ([1]; pH 5.5)	cAMP reporter score ([1]; pH 6)	cAMP reporter score ([1]; pH 6, modulator: ogerin)	cAMP reporter score ([1]; pH 6.5, modulator: ogerin)	surface expression score [2]
S12_C13insG	0.967	-0.083	0.797	-0.109	0.797
S12_C13insGS	0.32	-0.261	1.13	-0.198	1.42
S12_C13insGSG	0.119	-0.246	0.157	-0.134	0.057
S12_T14del	-1.47	-1.38	-1.94	-0.815	-1.78
S12del	-0.165	-0.077	-0.463	-0.004	-0.714
C13A	-1.58	-0.848	-1.83	-0.541	-1.47
C13D	-0.904	-1.19	-1.1	-0.869	-1.42
C13E	-1.24	0.522	-1.32	-0.789	-1.06
C13F	-1.87	-0.513	-2.19		-2.28
C13G	-1.07		-1.62	-0.063	-1.3
C13H	-0.849	-1.17	-1.47	-0.61	-0.923
C13I	-0.441	-1.33	-1.81	-0.897	-2.09
C13K	-1.83	-0.859	-1.61	-0.148	-1.16
C13L	-1.07	-0.212	-0.963	0	-1.45
C13M	-1.34	-1.58	-1.07	-1.48	-1.36
C13N	-0.778	-0.478	-0.763	-0.546	-1.19
C13P	-1.08	-0.971	-0.891	-1.22	-1.93
C13Q	-0.883	-0.087		-1.22	-2.66
C13R	-1.22	-1	-1.56	-1.11	-1.35
C13S	-0.605	-0.588	-1.31	-0.277	-1
C13T	-1.2	-0.638	-1.22	-0.566	-1.52

Variant	cAMP reporter score ([1]; pH 5.5)	cAMP reporter score ([1]; pH 6)	cAMP reporter score ([1]; pH 6, modulator: ogerin)	cAMP reporter score ([1]; pH 6.5, modulator: ogerin)	surface expression score [2]
C13V	-0.718	-1.22	-1.7	-0.452	-1.71
C13W	-0.78			-0.081	-1.24
C13Y	-1.18	-0.363	-1.28	-0.888	-0.876
C13_T14insGSG	-0.77	-1.17	-1.39	-0.271	-0.72
C13del	-1.64	-0.163	-1.39	-0.983	-1.48
T14A	1.07	0.926	1.18	0.853	1.02
T14C	1.14	-0.093	0.49	0.021	0.371
T14D	1.24	-0.127	0.873	0.01	1.77
T14E	0.375	0.39	-0.003	-0.006	-0.719
T14F	0.362	-0.512	0.366	-0.395	0.998
T14G	1.05	0.108	1.07	-0.043	0.879
T14H	-0.172	-0.246	0.047	-0.549	0.6
T14I	1.23	-0.2	1.21	0.14	1.36
T14K	0.759	0.261	0.349	-0.012	1.18
T14L	0.249	-0.755	0.315	-0.543	0.763
T14M	-0.358	-1.21	-0.377	-0.856	-0.611
T14N	1	0.37	0.996	0.827	0.47
T14P	0.076	-0.379	0.098	-0.386	0.087
T14Q	0.019	-0.643	0.432	0.374	-0.271
T14R	0.416	-0.343	0.317	0.048	0.114
T14S	1.01	1.08	1.1	1.98	0.778

Variant	cAMP reporter score ([1]; pH 5.5)	cAMP reporter score ([1]; pH 6)	cAMP reporter score ([1]; pH 6, modulator: ogerin)	cAMP reporter score ([1]; pH 6.5, modulator: ogerin)	surface expression score [2]
T14V	0.407	0.511	0.772	0.408	0.918
T14W	0.045	-0.418	0.068	-0.304	0.534
T14_D16del	-1.56	-0.763	-1.77	-1.3	-1.52
T14_I15del	-1.66	-0.517	-1.1	-0.76	-1.68
I15_D16insGS	1.68	-0.541	1.57	0.315	0.457
I15_H17del	-1.28	-0.802	-1.27	-1.05	-0.891
D16A	0.73	-0.013	0.54	-0.41	0.68
D16C	0.05	-0.385	-0.725	-1.09	-0.593
D16E	0.269	-0.068	0.122	0.485	-0.522
D16F	-0.347	-0.487	-0.717	-1.12	-0.162
D16G	-0.119	-0.459	-0.004	-0.844	1.06
D16H	0.699		-0.004	-0.334	
D16I	0.771	-0.254	0.163	0.307	0.565
D16K	1.08	0.4	0.764	0.436	1.58
D16L	0.088	-0.738	-0.25	-0.73	-0.008
D16M	0.777	-0.16	0.29	-0.346	1.27
D16N	0.242	0.108	0.219	-0.281	0.668
D16P	0.346	0.64	-0.079	-0.004	0.342
D16Q	-0.352	-0.306	0.145	0.483	0.182

Scores with a large standard error are left out. Two further conditions of the source, in which the scores hardly spread, are not listed. In variant names, del marks residues removed and ins residues inserted between the two positions. For some of these results: The data file names ogerin without a concentration.
